The source of these data is publication PMC4336329 (PLoS ONE, 2015).

About 14,000 (4.5%) of roughly 310,000 compounds showed an effect of 50% or more. The effect is printed as a negative number. This is one part of the list.
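Further: peak tail current of the secondary pulse compared with the same well before compound.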

The target of the assay is human ether-à-go-go-related gene (hERG) potassium channel (human, UniProt Q12809). As to the kind of experiment: primary screen, population patch clamp on CHO cells stably expressing hERG.
Chain of human ether-à-go-go-related gene (hERG) potassium channel (Q12809 whole entry, looked up): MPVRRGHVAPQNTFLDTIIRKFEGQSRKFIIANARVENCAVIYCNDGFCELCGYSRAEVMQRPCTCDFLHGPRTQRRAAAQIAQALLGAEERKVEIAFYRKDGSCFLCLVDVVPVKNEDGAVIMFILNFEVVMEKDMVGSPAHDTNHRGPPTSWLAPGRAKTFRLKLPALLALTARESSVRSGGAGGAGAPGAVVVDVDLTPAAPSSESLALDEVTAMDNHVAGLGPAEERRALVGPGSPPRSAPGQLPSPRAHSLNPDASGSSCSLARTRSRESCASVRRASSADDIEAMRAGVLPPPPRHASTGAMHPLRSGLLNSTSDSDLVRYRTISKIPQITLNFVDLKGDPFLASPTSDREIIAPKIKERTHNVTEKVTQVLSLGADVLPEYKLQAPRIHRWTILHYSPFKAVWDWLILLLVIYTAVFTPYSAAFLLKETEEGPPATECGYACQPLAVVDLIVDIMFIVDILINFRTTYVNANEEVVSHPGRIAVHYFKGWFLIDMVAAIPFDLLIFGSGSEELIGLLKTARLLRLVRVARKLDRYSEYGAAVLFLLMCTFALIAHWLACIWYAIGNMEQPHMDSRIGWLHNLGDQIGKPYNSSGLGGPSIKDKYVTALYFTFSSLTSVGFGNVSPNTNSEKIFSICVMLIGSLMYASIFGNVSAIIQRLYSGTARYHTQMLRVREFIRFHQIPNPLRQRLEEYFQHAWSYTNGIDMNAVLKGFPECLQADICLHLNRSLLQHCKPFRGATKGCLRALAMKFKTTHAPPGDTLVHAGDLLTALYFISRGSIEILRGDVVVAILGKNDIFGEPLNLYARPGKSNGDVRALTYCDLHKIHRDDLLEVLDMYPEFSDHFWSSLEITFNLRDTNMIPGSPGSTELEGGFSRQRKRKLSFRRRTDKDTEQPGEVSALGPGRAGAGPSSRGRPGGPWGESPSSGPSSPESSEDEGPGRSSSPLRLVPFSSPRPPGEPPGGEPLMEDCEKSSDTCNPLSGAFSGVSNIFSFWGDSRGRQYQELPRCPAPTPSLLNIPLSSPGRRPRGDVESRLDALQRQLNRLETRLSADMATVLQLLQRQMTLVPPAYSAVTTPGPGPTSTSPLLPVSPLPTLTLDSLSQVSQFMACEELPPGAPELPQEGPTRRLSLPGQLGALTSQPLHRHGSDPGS
`CC(C)CN1CCN(C(=O)CCc2nnc(Cc3c[nH]c4ccccc34)o2)[C@@H](C)C1=O`: the “hERG current change (%, negative = inhibition) at 10uM” value was 14.6%.
The value for `CCCCS(=O)(=O)Nc1ccc2cn[nH]c2c1` was -5.57%; that for `CC1=CCC2C(=O)N(CCc3c[nH]c4ccccc34)C(=O)C2C1` (stereo not shown) was -9.31%.
With `CN(C)CCNC(=S)Nc1ccc(Cl)cc1`, the “hERG current change (%, negative = inhibition) at 10uM” value is given as 0.163%.
As to `CCc1ccccc1N(C)S(=O)(=O)c1cc(-c2cc(C)no2)ccc1OC`, the “hERG current change (%, negative = inhibition) at 10uM” value came to 17.1%.
For `Cc1ccc(-n2ncc3c2CC(C)(C)CC3NC(=O)CCN2CCCCC2=O)cc1` (stereo not shown), the “hERG current change (%, negative = inhibition) at 10uM” value came to 3.16%.
Turning to `CN(C(=O)COC(=O)C1CSC2(C)CCC(=O)N12)c1ccccc1` (stereo not shown), the “hERG current change (%, negative = inhibition) at 10uM” value was -3.89%.
The value for `O=C(COc1ccc([N+](=O)[O-])cc1)Nc1ccc(C(=O)Nc2ccccc2C(=O)O)cc1` was -30.2%; that for `Cc1cc(=O)oc2cc(NC(=O)c3ccnn3C)ccc12` was 23.5%.
Under `CCN(CC)S(=O)(=O)c1ccc(N2CCCC2)c(NC(=O)c2ccncc2)c1` stands -22.6%; under `COc1ccc(-n2c3c(c(=O)[nH]c2=O)C(NS(=O)(=O)c2ccc(Cl)cc2)(C(F)(F)F)C(=O)N3)cc1` (stereo not shown), -2.76%.
Under `CC(C)N(C(=O)/C=C/c1cccc([N+](=O)[O-])c1)C(C)C` stands -13.8%; under `O=C(COc1ccc(Cl)cc1)NCc1nnc2c3ccccc3c(-c3ccccc3)nn12`, -66.9%; under `COc1ccc(NC(=O)c2cccc(S(=O)(=O)Nc3ccc(Br)cc3)c2)cn1`, -2.46%.
In the case of `O=C(COC(=O)CNC(=O)c1ccccc1)Nc1ccccc1Cl`, the “hERG current change (%, negative = inhibition) at 10uM” value is recorded as 13.3%.
Consider `CCC(=O)N1CCc2cc(Br)cc(S(=O)(=O)NCc3ccco3)c21`, for which the “hERG current change (%, negative = inhibition) at 10uM” value is reported as -33.7%.
For `CCOc1ccc(C(=O)N2CCCC(c3nc(-c4cccs4)no3)C2)cc1` (stereo not shown), the “hERG current change (%, negative = inhibition) at 10uM” value is listed as -46.9%.
Under `Cc1ccc(Cc2cnc(NC(=O)CN3CCOCC3)s2)cc1Cl` stands -23.9%; under `Cn1c(=O)c2c(nc(Br)n2CCCc2ccccc2)n(C)c1=O`, -9.05%; under `COc1ccc(C(C)(C)C)cc1NC(=O)c1ccoc1C`, -19.8%.
Under `Cc1cc(C[n+]2cc(Cl)ccc2N)c2ncccc2c1.[Br-]` stands -48.1%.
Under `NS(=O)(=O)c1ccc(NCc2cc(Cl)ccc2OCc2ccc(F)cc2)cc1` stands 3.36%.
As to `O=C(CSc1ccc(Cl)cc1)N1CCC(c2nc3ccccc3s2)CC1`, the “hERG current change (%, negative = inhibition) at 10uM” value is listed as -59.7%.
The value for `NC1=NC(=O)/C(=C/c2ccc(Cl)cc2Cl)S1` was 13.4%; that for `Cn1c(N)c(C(=O)COC(=O)CCC2CCCCC2)c(=O)n(C)c1=O` was -73.6%; that for `CCCS(=O)(=O)N1CCN(Cc2ccc([N+](=O)[O-])cc2)CC1.O=C(O)C(=O)O` was -51.9%.
In the case of `CC(=O)OC[C@H]1O[C@@H](O/N=C/[C@@H](C)[C@H](OCc2ccccc2)C(C)C)[C@H](OC(C)=O)[C@@H](OC(C)=O)[C@@H]1OC(C)=O`, the “hERG current change (%, negative = inhibition) at 10uM” value is listed as -22.4%.
Take `COC(=O)C1=C(C)NC(=O)NC1c1ccc(OC(=O)c2ccco2)cc1` (stereo not shown): the “hERG current change (%, negative = inhibition) at 10uM” value is -1.19%.
As to `CCN1CC(c2ccccc2)C(c2ccc(Cl)cc2)=N1` (stereo not shown), the “hERG current change (%, negative = inhibition) at 10uM” value is -8.97%.
The value for `CC(C)c1nnc(SCC(=O)NCc2ccc3c(c2)OCO3)n1C` was -5.15%; that for `CCCCc1ccc(NC(=O)CSC2=NN3CCCC(=O)N=C3S2)cc1` was 2.28%.
As for `CCC(=O)Nc1nonc1-c1nc2ccccc2n1Cc1cccc2ccccc12`, the “hERG current change (%, negative = inhibition) at 10uM” value is reported as 3.1%.
In the case of `Cc1cc(=O)[nH]c(SCC(=O)C23CC4CC(CC(C4)C2)C3)c1C#N`, the “hERG current change (%, negative = inhibition) at 10uM” value stood at 12.5%.
The value for `CN(C(=O)COC(=O)c1ccc(Cl)cc1N)C1CCCCC1` was 12.3%; that for `N/C(=N\OC(=O)c1cccc(Cn2cc(C(F)(F)F)ccc2=O)c1)c1ccccc1` was -2.75%.
The value for `COc1ccccc1NS(=O)(=O)c1ccc(Br)s1` was -32.1%; that for `Fc1ccc(-c2cc(-c3cccs3)cc(-c3ccccc3)n2)cc1` was 11.4%.
The value for `COc1ccc(C(=O)NC2CC2)cc1OC1CCN(Cc2ccc(F)cc2)CC1` was -81.8%; that for `O=C(C1=C(O)C(=O)N(CCc2ccccc2)C1c1cccnc1)c1ccco1` (stereo not shown) was 1.06%; that for `CCC(=O)c1ccc(OCC(=O)NCC2COc3ccccc3O2)cc1` (stereo not shown) was -25.5%.
Consider `CCN(CC)S(=O)(=O)c1cc(C(=O)OCC(=O)Nc2cccc(C)c2C)ccc1F`, for which the “hERG current change (%, negative = inhibition) at 10uM” value is reported as -10.3%.
For `CN(c1cccc(NC(=O)CCSc2ccccc2)c1)S(C)(=O)=O`, the “hERG current change (%, negative = inhibition) at 10uM” value was -28.8%.
Under `COc1cccc(OC)c1C(=O)n1nc(C)cc1C` stands 9.59%.
